Among the data in publication PMC3690481 (2013) are Kd values, retold here.

The labels stand for the following.
B1: OTULIN C129A E314R (enzyme)
chain: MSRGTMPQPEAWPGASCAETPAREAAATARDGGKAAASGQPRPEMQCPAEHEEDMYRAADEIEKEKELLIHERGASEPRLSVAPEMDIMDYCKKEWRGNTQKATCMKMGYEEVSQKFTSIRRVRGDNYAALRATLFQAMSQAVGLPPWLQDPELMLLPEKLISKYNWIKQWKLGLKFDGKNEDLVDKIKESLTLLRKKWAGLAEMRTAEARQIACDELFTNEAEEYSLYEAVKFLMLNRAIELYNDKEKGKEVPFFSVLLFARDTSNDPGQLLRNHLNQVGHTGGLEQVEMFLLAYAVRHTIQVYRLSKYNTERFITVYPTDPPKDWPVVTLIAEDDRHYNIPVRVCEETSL
B2: OTULIN C129A Y91F (protein)
chain: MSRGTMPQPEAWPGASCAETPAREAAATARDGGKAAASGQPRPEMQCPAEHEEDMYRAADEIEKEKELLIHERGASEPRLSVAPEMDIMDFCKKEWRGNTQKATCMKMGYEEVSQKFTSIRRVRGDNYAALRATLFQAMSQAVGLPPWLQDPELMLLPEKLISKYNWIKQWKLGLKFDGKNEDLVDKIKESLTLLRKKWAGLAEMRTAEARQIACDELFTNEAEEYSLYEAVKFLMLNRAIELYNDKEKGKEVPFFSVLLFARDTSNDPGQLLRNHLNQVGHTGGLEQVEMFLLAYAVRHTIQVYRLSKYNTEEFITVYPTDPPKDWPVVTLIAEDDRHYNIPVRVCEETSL
B3: OTULIN C129A W96A (enzyme)
chain: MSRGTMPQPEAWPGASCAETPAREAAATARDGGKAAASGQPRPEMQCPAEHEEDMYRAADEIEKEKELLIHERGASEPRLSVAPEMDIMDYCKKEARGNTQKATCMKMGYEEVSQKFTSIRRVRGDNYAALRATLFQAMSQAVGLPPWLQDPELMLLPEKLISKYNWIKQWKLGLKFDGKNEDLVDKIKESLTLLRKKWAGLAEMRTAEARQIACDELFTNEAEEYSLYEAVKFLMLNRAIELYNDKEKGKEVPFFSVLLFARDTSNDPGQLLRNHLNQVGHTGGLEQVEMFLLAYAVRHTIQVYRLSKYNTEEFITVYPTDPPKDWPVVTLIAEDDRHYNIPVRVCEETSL

This assay deals with FlAsH-tagged Met1-diUb (UniProt P0CG48 in part; P0CG48 in part, Lumio Green (FlAsH) on the C-terminal WCCPGCC motif). The assay can be described thus: FP.
As for B1, the Kd came to 27.7 µM.

Molecule B2 registered an equilibrium dissociation constant (Kd) of 0.772 µM. With B3, the Kd worked out at 24.5 µM.
